Source: PubChem BioAssay AID1963576 (National Center for Advancing Translational Sciences (NCATS), 2024)
Among all 46,000 compounds or so, about 60 (0.1%) were called active. About 3% were inconclusive and are not listed. Calls come from the whole dose curve; as a rule, active = well fitted inhibition curve with a large enough effect; inconclusive = small, poorly fitted or top-dose-only effect; inactive = no such curve, though single readings can be large or run the other way. The list shows a part of the results.

Experiment: Primary qHTS assay for Inhibitors of ovarian cancer metastasis using an organotypic tumor microenvironment (TME) model.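 For activity change, negative = inhibition: plate controls were DMSO wells for no effect and tomatine positive control wells for full effect.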 Note: nearly all actives have a fitted effect of over 65% in size.
Conditions: SKOV3ip1-GFP adhesion/invasion on 3D omental model, fluorescence; series mostly up to 45.8 µM; activity change, negative = inhibition: at the top concentration
Summary of the method: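 A 3D layer of primary human omental fibroblasts, mesothelial cells, fibronectin and collagen I, grown 48 hr, received SKOV3ip1-GFP cells in serum-free medium plus compounds at 0.36-46 umol/L. After 2 hr RT and 16 hr 37 C, fixed adherent GFP cells were counted; normalized to DMSO and tomatine.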

Activity change, negative = inhibition, inactive:
Cc1ccc(C)c(N2CCN(S(=O)(=O)c3csc(C(N)=O)c3)CC2)c1 -9.15%
CCn1nnc2cc(C(=O)Nc3cccc(C)c3C)ccc21 -28.4%
OC(CN1CCC(Cc2ccc(F)cc2)CC1)c1ccc(Cl)cc1 (configuration not stated) -1.1%
Cc1cccc(CC(=O)Nc2cccc(-c3nc4cccnc4s3)c2)c1 -2.63%
Cc1ccccc1CSCCNC(=O)CN(c1ccccc1)S(=O)(=O)N(C)C -8.44%
COc1ccccc1CNC(=O)c1cc2ccc3ccc(C)[nH]c3c2n1 50.3%
COc1cccc(C(C(=O)NCc2ccccc2)N(C(=O)Cn2nnc3ccccc32)c2cccc(C(C)=O)c2)c1 (configuration not stated) -2.62%
Cc1cccc(Oc2ccc(NC(=O)CCC(=O)OCC(=O)c3ccc(Br)cc3)cc2)c1C 6.82%
COc1cc(C2c3c(-c4ccccc4O)n[nH]c3C(=O)N2CCO)ccc1OCC(C)C (configuration not stated) 15%
Cc1cc(C)c(Cn2c3ccccc3c3cnn(CC(=O)NCC(C)c4ccccc4)c(=O)c32)c(C)c1 (configuration not stated) 1.9%
Cc1ccc(NC(=O)Cn2nnc3sc4c(c3c2=O)CCCC4)c(C)c1 -5.93%
CCCN(CCC)C(=O)CSc1nnc2cc(C)c3ccccc3n12 7.15%
CCCN1CCN(CCCNC(=O)c2ccc(CS(=O)c3ccc(OC)cc3)o2)CC1 (configuration not stated) -4.99%
CCCCc1ccc(NC(=O)CSc2nnc3[nH]c(=O)cc(C)n23)cc1 4.35%
COc1ccc(-n2c(CCC(=O)O)ccc2-c2ccccc2)c(OC)c1 -0.274%
COc1cc(OC)c(NC(=O)CCNS(=O)(=O)c2ccc3c(c2)oc(=O)n3C)cc1Cl 9.12%
Cc1ccc(OCc2nnc(-c3ccccc3)o2)cc1 1.1%
CC(=O)Nc1cccc(NC(=O)C(=O)NCCc2csc3nc(-c4ccccc4F)nn23)c1 -8.43%
CCOC(=O)c1ccccc1NC(=O)c1nn(C)c2c1COc1ccccc1-2 -5.97%
Cc1cc(Cl)ccc1NC(=O)c1cc2ccccn2n1 -8.88%
Cc1ccc(CNC(=O)CSC2=Nc3ccccc3C3=NC(C)C(=O)N23)cc1 (configuration not stated) 2.57%
O=C(Nc1nc2n(n1)C(c1ccc(F)cc1)C=C(c1ccccc1)N2)c1cccc([N+](=O)[O-])c1 (configuration not stated) 3.92%
COc1c(Cl)cc(Cl)cc1CNCCSc1nnnn1C 0.707%
CCC(C)NC(=O)CSc1nc2cc3c(cc2c(=O)n1CCCCCC(=O)NCc1ccc(OC)cc1)OCO3 (configuration not stated) -14.9%
CCOc1ccccc1NC(=O)CN1CCN(S(=O)(=O)c2ccc(Br)cc2)CC1 -7.54%
CC(=O)c1cccc(NC(=O)c2nc(-c3ccccc3)n(-c3cccc(C)c3)n2)c1 0.523%
CCS(=O)(=O)N1CCc2cc(C(=O)Nc3ccc(OC)cc3OC)ccc21 -18.6%
Cc1cc(C)c(NC(=O)Cn2c(=O)n(Cc3ccccc3)c(=O)c3c(C)c(C(=O)N(C)C)sc32)c(C)c1 -1.87%
COc1cc(OC)c(NC(=O)c2c3c(nc4ccccc24)C(=O)N(C2CCCCC2)C3)cc1Cl -5.27%
COc1cc2c(=O)c(S(=O)(=O)c3ccccc3)cn(CC(=O)Nc3ccccc3C)c2cc1OC 0.132%
COc1cc2c(cc1OC)C(COc1ccccc1OC)N(C(=O)c1ccccc1OC)CC2 (configuration not stated) -1.08%
CCOCCCNC(=O)C(c1ccc(Cl)cc1)N(Cc1ccc2c(c1)OCO2)C(=O)c1ccccc1O (configuration not stated) -2.71%
COc1ccc(NC(=O)C(C)n2nc(C)c3c(C)n(-c4ccccc4)nc3c2=O)cc1Cl (configuration not stated) 3.01%
CC(=O)Nc1ccc(Nc2nc3ccc(C)cc3n3nnnc23)cc1 -9.31%
CCOc1ccc(C(=O)N2CCN(Cc3cc(=O)n4nc(-c5cccc(OC)c5)sc4n3)CC2)cc1 4.59%
Cc1cccc(NC(=O)c2ccc(F)c(S(=O)(=O)N(C)C3CCCCC3)c2)c1 -8.52%
Cc1ccc(C)c(OCCCn2c(-c3ccc(Cl)cc3)nc3ccccc3c2=O)c1 -1.76%
COc1ccc(-c2nc(S(=O)(=O)c3ccccc3)c(N3CCCCC3)o2)cc1 9.71%
Cc1ccc2oc(=O)c3cnn(CC(=O)Nc4ccc(Br)cc4C)c3c2c1 2.92%
Cc1ccccc1CNCCCSc1nnnn1-c1ccccc1 -10.7%
O=C(c1ccco1)N(Cc1cccnc1)c1nc2c(F)cccc2s1 2.63%
Cc1cc(C)c(Cn2c(C)c(CNCc3ccccc3C)c(C(=O)O)c2C)c(C)c1 -3.15%
CCc1ccccc1NC(=O)C(=O)c1cc(C)n(-c2ccccc2F)c1C -21.3%
CCc1cccc(C)c1NC(=O)COCc1cc(-c2ccc3c(c2)OCO3)on1 35.1%
Cc1c2cnn(CC(=O)O)c(=O)c2c(C)n1Cc1cccc(Cl)c1 -7.06%

outcome, inactive:
CCN1CCc2c(sc(-n3cccc3)c2C(C)NC(=O)Nc2ccccc2C)C1 (configuration not stated)
Cc1ccc(C)c(CSc2cn(CCNC(=O)c3ccccc3F)c3ccccc23)c1
COc1ccc(Cc2c(C)nn(-c3nc(C)c(C(=O)Nc4ccc(C)cc4C)s3)c2C)cc1
O=C(/C=C/c1ccc(Cl)cc1)Nc1nc(-c2cccs2)ns1
CCN(CC)CCNC(=O)c1cc2c(=O)oc3ccc(C)cc3c2s1
CC(=O)N1CCCc2cc(S(=O)(=O)N(Cc3ccccc3)C(C)C)ccc21
CCn1cc(C(=O)NCc2ccc(F)cc2)c(=O)c2cc(S(=O)(=O)N(C)C)ccc21
CC(C)CCNC(=O)c1cn(C)c2ccc(S(=O)(=O)N3CCOCC3)cc2c1=O
COc1ccccc1N1CCN(S(=O)(=O)c2ccc(-c3cnc(C4CC4)o3)cc2)CC1
CCC1CCCCN1Cc1cn2c(-c3ccc(Br)cc3)nnc2s1 (configuration not stated)
Cc1cccc(C(=O)Nc2cccc(OCc3cc(=O)n4ccccc4n3)c2)c1
Cc1c(Cl)cccc1-n1nc(C)c2c(C)cc(=O)n(CC(=O)NCc3ccccc3)c21
CCc1cccc(NC(=O)CCS(=O)(=O)c2cc3c4c(c2)CCN4C(=O)CC3)c1
COc1ccc(N2CCN(C(=O)c3cccn4c(=O)c5ccc(Cl)cc5nc34)CC2)cc1
CCN(Cc1nc(-c2ccc(OC)cc2)oc1C)S(=O)(=O)c1ccc(Cl)cc1
Cc1cc2c(cc1S(=O)(=O)CCC(=O)Nc1ccc(OC(F)(F)F)cc1)OCC(=O)N2
O=C(CC1N=C2c3ccccc3N=C(SCc3ccc(Cl)cc3)N2C1=O)NC1CCCCC1 (configuration not stated)
